Measured values from the supplement of paper PMC3334620.
In all, about 33,000 sequences were measured (“E-score (-0.5 to 0.5)”: median about -0.035, highest 2% from about 0.34 on). The list shows a part of the results.

target: T1, Mot3 (UniProt P54785); assay: PBM E-score (8-mer binding enrichment) (E-score (-0.5 to 0.5)); higher = stronger / more preferred TF binding; most listed sequences are background and not binding sites; details: protein concentration: 200 nM; construct: GST-full length
T1 sequence: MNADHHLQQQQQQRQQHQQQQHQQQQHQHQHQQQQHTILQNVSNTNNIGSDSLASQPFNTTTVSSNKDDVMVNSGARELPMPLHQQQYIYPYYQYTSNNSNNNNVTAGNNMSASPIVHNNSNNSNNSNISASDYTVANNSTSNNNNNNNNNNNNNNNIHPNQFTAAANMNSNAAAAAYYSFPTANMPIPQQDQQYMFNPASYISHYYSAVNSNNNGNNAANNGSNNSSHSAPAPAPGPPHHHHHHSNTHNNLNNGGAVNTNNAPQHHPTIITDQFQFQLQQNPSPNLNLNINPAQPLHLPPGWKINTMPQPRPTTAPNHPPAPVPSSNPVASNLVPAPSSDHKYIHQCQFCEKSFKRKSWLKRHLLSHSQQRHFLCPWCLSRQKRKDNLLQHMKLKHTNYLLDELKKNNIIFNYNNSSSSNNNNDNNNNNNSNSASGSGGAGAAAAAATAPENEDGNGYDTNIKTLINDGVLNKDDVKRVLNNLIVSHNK
How it was run: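 For each ungapped eight-base word taken together with its reverse complement, the Universal PBM Analysis Suite assigned an E-score. Binding data came from GST-tagged yeast transcription factors, applied at about 100-200 nM, on universal all-10-mer Agilent arrays made double-stranded by primer extension. Fluorescent anti-GST marked bound protein, and scans were normalised with masliner.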

Row | Sequence | PBM E-score
1 | CAGAGGTC | -0.225
2 | CCCGATCC | -0.159
3 | AATAGTTG | 0.197
4 | GCATTTAC | 0.182
5 | AAAACAAA | 0.179
6 | CGTCACGC | 0.0486
7 | GTGCCAAC | -0.0867
8 | GGAGAACC | -0.135
9 | AGGCGCGG | 0.117
10 | TAAACTTA | 0.199
11 | CTGTTTCA | 0.0233
12 | ATGGGAGA | -0.058
13 | AAAATCGT | -0.0334
14 | AGATCCAT | -0.295
15 | CAGAGCGC | -0.053
16 | CAATATCC | -0.271
17 | CCGGCTCC | -0.449
18 | AGTGCGGA | -0.22
19 | AGGGCCAC | -0.252
20 | CTGTCTCA | -0.258
21 | ACGTAATG | 0.348
22 | AAACAGAT | 0.139
23 | AGCTTTGG | -0.161
24 | GTTCGACA | 0.191
25 | GCGAAGCC | -0.194

Row | Sequence | PBM E-score
26 | CCGAAAAG | -0.0393
27 | AGGGTCCC | 0.0028
28 | ATCCCTGA | -0.285
29 | AATAATAA | 0.183
30 | TCACGCCA | 0.00058
31 | GTCCAAGA | -0.247
32 | TAGTTGAA | -0.00318
33 | TATAGGCA | 0.482
34 | AGACTCCA | -0.272
35 | AAGTACCA | -0.00264
36 | CAGCCGAG | -0.21
37 | CCATTTCC | 0.0138
38 | AATTAAAT | 0.124
39 | CACGATAC | 0.112
40 | GCGTTTTA | 0.11
41 | GACTTCAC | -0.093
42 | ATCCTTCA | 0.0452
43 | CATTGGGC | -0.124
44 | GGCTTAAA | -0.0784
45 | GCACTCAC | -0.129
46 | GCGAGCGC | -0.131
47 | GGTAAGGA | 0.205
48 | ATTGCTTG | 0.0927
49 | AAGCTGGT | -0.0363
50 | TGAAGCCA | -0.0204

Row | Sequence | PBM E-score
51 | ATAACAGC | 0.159
52 | CCACGTTC | 0.00954
53 | CTCTCAAA | 0.048
54 | AAAACAAT | 0.233
55 | CGTCCACC | -0.302
56 | TGGCAACA | 0.118
57 | CGGAGGAA | 0.111
58 | ATTGTATA | 0.0976
59 | AAGGGGGA | -0.182
60 | AGGTCTTG | -0.187
61 | CCTTAGGA | 0.137
62 | TATTTCAA | 0.159
63 | CAACAGGC | 0.377
64 | AATCCAGT | -0.102
65 | CCTGGCGA | -0.186
66 | ACCGTTTG | -0.121
67 | AGGGGTCC | -0.176
68 | AGGGCCCC | -0.164
69 | TGAGCGCA | -0.208
70 | CGCCCAGA | -0.045
71 | TAGCTCAA | -0.0939
72 | TACCGTCA | -0.144
73 | AAAGTTGC | 0.0627
74 | GGATCCAA | -0.0546
75 | AAGTATCG | 0.12

Row | Sequence | PBM E-score
76 | CCGCTAAA | -0.13
77 | CCCAGCCC | -0.278
78 | ACCGGTGC | -0.167
79 | AATAGTTC | -0.0328
80 | AATAACTC | -0.0772
81 | GCATTGCC | 0.154
82 | CGCGGAAG | -0.172
83 | GGAACGTA | 0.0776
84 | AGCATGTG | 0.179
85 | TTGCACAA | 0.144
86 | CGATCATC | 0.0732
87 | AAGGCGGT | -0.0582
88 | AGGCTAGG | -0.275
89 | TACGCGAA | 0.221
90 | CATGATGA | 0.0549
91 | GACGTACC | 0.0191
92 | ACGCTAGG | 0.00485
93 | CTTTCGTA | 0.0689
94 | ATATATGA | 0.011
95 | CGGTCCAG | -0.194
96 | AACAACGC | 0.175
97 | AGCCTAAT | 0.185
98 | AATATTAA | 0.13
99 | ACGTCAAA | 0.253
100 | CACCCTTA | -0.063

Row | Sequence | PBM E-score
101 | GTATGATA | 0.175
102 | GCCAGGCA | 0.436
103 | ATTTCCAC | 0.0201
104 | ATCCGTCC | -0.132
105 | CGGGTACC | 0.0123
106 | GAAACTTC | -0.0215
107 | CCCTTACC | -0.134
108 | ACGAACCG | -0.085
109 | AGTGCTGA | -0.215
110 | ACGGCGGC | -0.0775
111 | ATTAAAGG | 0.312
112 | AGCTCTTG | -0.0232
113 | CTCTTCCC | -0.0605
114 | CAGGAACC | 0.46
115 | AGCGTGAC | 0.106
116 | ATATCCAT | 0.051
117 | AGATCTAT | -0.0523
118 | AATTGGTC | 0.0243
119 | CACGTCAA | 0.0623
120 | AACCACCT | -0.162
121 | CGCTGGTA | -0.0902
122 | AAGCTTGG | -0.244
123 | ACGCCATG | 0.09
124 | AACTAGTC | -0.0317
125 | ATACTGGG | -0.0397

Row | Sequence | PBM E-score
126 | AACGATCG | 0.122
127 | ACCCAAGT | -0.0543
128 | AGGAGGAA | 0.149
129 | CCGGCCGG | -0.17
130 | CAATACGC | 0.214
131 | CTGAACGC | -0.0478
132 | AGAAGTCC | -0.227
133 | CCCGGCAA | -0.125
134 | GCCCTGCC | -0.149
135 | AGGTGAGG | -0.317
136 | TTCCTAAA | 0.408
137 | GCATCACC | -0.222
138 | GGTGACAA | -0.12
139 | CTACCGCA | -0.0463
140 | AAGAGGTG | 0.139
141 | ATTAAGTC | 0.138
142 | CATAATCG | -0.148
143 | CTGAAGTC | -0.0381
144 | ACTCTAAA | 0.00129
145 | TCGGCGAA | -0.229
146 | GCTTGCCA | -0.0267
147 | AGCGCGCT | -0.198
148 | ACTACTAG | 0.0537
149 | AGGTATTA | 0.225
150 | AGTCACCC | 0.0464

Row | Sequence | PBM E-score
151 | CGTCGGTA | 0.0636
152 | GAATAAAA | 0.0935
153 | GCTTGATA | -0.0713
154 | ACCAGCGC | -0.0467
155 | AGGGCAGC | -0.0787
156 | ATGCACAA | 0.0919
157 | AAACATGG | 0.222
158 | TCCTAAGA | -0.052
159 | ATATGATG | -0.0645
160 | GTTGTAAA | 0.31
161 | GGACTCTA | -0.204
162 | ACGGCGAG | -0.168
163 | ACCACGTG | 0.07
164 | ACGTGTAG | 0.389
165 | GCATCCCC | -0.275
166 | GCATACAA | 0.108
167 | AACGGGAA | -0.03
168 | AATGAAGT | -0.0462
169 | TCAAATGA | -0.00184
170 | ATATCGGG | -0.103
171 | TATACTGA | 0.095
172 | ACAAAGTG | -0.0319
